# Assay results taken from the RNAGym collection of RNA variant scans (doi:10.1073/pnas.2313332121).
# Variants at the floor of the assay are shown more often than the library holds them.
# B1: TPR 5TU (parent)
# chain: GGAUCUUCUCGAUCUAACAAAAAAGACAAAUCUGCCACAAAGCUUGAGAGCAUCUUCGGAUGCAGAGGCGGCAGCCUUCGGUGGCGCGAUAGCGCCAACGUUCUCAACUAUGACACGCAAAACGCGUGCUCCGUUGAAUGGAGUUUAUCAUG
# Variants of: B1
# Assay: polymerase ribozyme fitness, log enrichment relative to wild type (log ratio); higher = more active; in vitro selection for triplet polymerase activity
# How it was run: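 Frozen incubation at −7 °C formed the core of a single, triplicate in vitro selection round applied to PCR-built, transcribed mutant libraries of each subunit of a heterodimeric triplet polymerase ribozyme. Extended constructs were gel-excised, captured with streptavidin beads and amplified by RT-PCR, and input and output libraries were Illumina-sequenced with a filter of ≥10 input reads and ≥1 read per output. Fitness is the logarithm of genotype enrichment relative to wild-type enrichment, with inverse-variance-weighted replicate averaging, and the logarithm is base 2.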
row,Variant,polymerase ribozyme fitness (log ratio)
1,GGAUCGUCUCGAUCUAACGAAAAAGACAAAUCUGCCACAAAGCUUGAGAGCAUCUUCGGAUGCAGAGGGGGCAGCCUUCGGUGGCGCUAUAGCGCCAAGGUUCUCAACUAUGACACGCAAAACGCGUGCUCCGUUGAAUGGAGUGUAUCAUG,≤ -4.2
2,GGAUCGUCUCGAUCUAACGAAAAAGACAAAUCUGCCACAAAGCUUGAGAGCAUCUUCGGAUGCAGAGGCGGCAGCCUUCGGUGGCGAGAUAGCCCCAACGUUCUCAACUAUGACACGCAAAACUCGUGCUCCGUUGAAUGGAGUUUAUCCUG,≤ -4.2
3,GGAUCGUCUCGAUCUAACUAAAAAGACAAAUCUGCCACAAAGCUUGAGACCAUCUUCGGAUGCAGAGGCGGCAGCCUUCGGUGGCGCUAUAGCGCCAAGGUUCUCAACUAUGACACGCAAAACGCGUGCUCCGUUGAAUGGAGUUUAUCAUG,≤ -4.2
4,GGAUCGUCUCGAUCUAACACAGAAGCCAAAUCUGCCACAAAGCUUGAGAGCAUCUUAGGAUGCAGAGGCGGCAGCCUUCGGUGGCGAGAUAGCGCCAACGUUCUCAACUAUGACACGCAGAACGCGUGCUCCGUUGAAUGGAGUUUAUCAUG,≤ -4.2
5,GGAUCGUCUCGAUCUAACAUCCAAGACAAAUCUGCCCCAAAGCUUGAGAGCAUCUUCGGAUGCAGAGGCGGCAGCCUUCGGUGGCGCGAUAGCGCCAACGUUCUCAACUAUGACACGCAAAACGCGUUCUCCGUUGAAUGGAGUUUAUCAUG,≤ -4.2
6,GGAUCGUCUCGAUCUAACAUAAAAGACAAAUCUGCCACAAAGCUUGACAGCAUCUUCGGAUGCAGAGGCGGCAGCCCUCGGUGGUCCGAUAGCGCCAACGUUCUCAACUAUGACACGCAAAACGCGUGCUCCGUUGAAUGGAGUUCAUCAUG,≤ -4.2
7,GGAUCGUCUCGAUCUAACAAAGAUGACAAAUCUGCCACAACGCUUGAGAGCAUCUUCGGAUGCAGAGGCGGCAGCCUUCGGUGGCGCGAUAGCGCCAACGUUCUCAACUAUGACACGCAAAACGCGUGCUCCGUUGAAUGAAUUUUAUCAUG,≤ -4.2
8,GGAUCGUCUCGAUCUAACAAAUAAGACAAAUCUGCCACAAAGCUUGAGAGCAUCUUCGGAUGCAGAGGCGGCAGCCUUCGGUGGAGCGAUAGCGCCAACGUUCUCAACUAUGACACGCAAAACGCGUGCUCCGUUGAAUGGAGUUUAUCAUG,-0.601
9,GGAUCGUCUCGAUCUAACAAAACAGACAAAUCUUCCACAAAGCUUGAGAGCAUCUACGGAUGCAGAGGCGGCUGCCUUCGGUGGCGGGAUAGCGCCAACGUUCUCAACUAUGACACGCAAAACGCGUGCUCCGUUGAAUGGAGUUUAUCAUG,≤ -4.2
10,GGAUCGUCUCGAUCUAACAAAAGAGACAAAUCUGCCACAAAGCUUGAGAGCAUCUUCGGAUGCAGAGGCGGCAGCCUUCGGUGGCGCGAUAGCGCCAACGUUCUCAACUAUGACACGCAAAACGCGUGCUCCGUUGAAUGGAGGUUAUCAUG,-3.95
11,GGAUCGUCUCGAUCUAACAAAAUAGACAAAUCUGCCACAAAGCUUGAGAGCAUCUUCGGAUGCAGAGGCGGCAGCCUUCGGUGGCGCGAUAGCGCCAACGUUCUCAACUAUGACACGCAAAAUGCGUGCUCCGUUGAAUGUAGUUUAUCAUG,≤ -4.2
12,GGAUCGUCUCGAUCUAACAAAAACUACAAAUCUGCCACAAAGUUUGAGAGCAUCUUCGGAUGCAGAGGCGGCAGCCUUCGGUAGCGCGAUAGCGCCAACGUUCUCUACUAUGACACGCAAAACGCGUGCUCCGUUGAAUGGACUUUGUCAUG,≤ -4.2
13,GGAUCGUCUCGAUCUAACAAAAAUGACCAAUCUGCCACAAAGCUUGAGAGCAUCUUCGGAUGCAGAGGCGGCAGCCUUCGGUGGCGCUAUAGGGCCAACGUUCUCAACUAUGACAUGCAAAACGCGUGCUCCGUUGAAUGGACUUUAUCAUG,≤ -4.2
14,GGAUCGUCUCGAUCUAACAAAAAAGACUAAUCUGCCACAAAGCUUGAGAGCAUCUUCGGAUGCAGAGGCGGCAGCCUUCGGUGGCGCGAUAGCGCCAACGUUCUCAACUAUGACACGCAAAACGCGUGCUCCGUUGAAUGGAGUUUAUCAUG,-3.76
15,GGAUCGUCUCGAUCUAACAAAAAAGACUAAUCUGCCACAAAGCUUGAGAGCAUCUUCAGAUGCAGAGGCGGCGGCCUUCGGUGGCGCGAUAGCGCCAACGUUCUCAACUAUGACACGCAAAACGCAUGCUCCGUUGAAUGGAGUUUAUCAUG,≤ -4.2
16,GGAUCGUCUCGAUCUAACAAAAAAGACACAUCUGCCACAAAGCUUGAGAGCAUCUUAGGUUGCAGGGGCGGCAGCCUUCGGUGGCGCGAUAGCGACAACGUUCUCAACUCUGAUACGCAAAACGCGUGCUCCGUUGAAUGGAGUUUAUCAUG,≤ -4.2
17,GGAUCGUCUCGAUCUAACAAAAAAGACAAAUCUGCCACCAAGCUUGAGAGCAUCUUCGGAUGCAGAGGCGGCAGCCUUCGGUCGGGCGAUAGCGCCAACGUUCUCAACUCUGACACGCAAAACGCGUGCUCCGUUGAAUGGAGUUUAUCAUG,≤ -4.2
18,GGAUCGUCUCGAUCUAACAAAAAAGACAAAUCUGCCACGCAGCUUGUGAGCAACUUCGGAUGCAGAGGCGGCAGCCUUCGGUGGCGCGAUAGCGCCCACGUUCUCAACUAUGACACGCAAAACGCGUGCUCCGUUGAAUGGAGUUUAUAAUU,≤ -4.2
19,GGAUCGUCUCGAUCUAACAAAAAAGACAAAUCUGCCACGAAGCUUGAGAGCAUCUUCGGAUGCAGAGGCGGCAGCCUUCGGUGGCUCGACAGCGCCAACGUUCUCAACUGUGACACGCAAAACGCGUGCUCCGUUGAAUGGAGUUUAUCAUG,≤ -4.2
